Data published in PubChem BioAssay AID686979 (National Center for Advancing Translational Sciences (NCATS), 2013).
Several values for one entry are separate records, joined by “and”; a condition that tells them apart may be missing. Equal entries are not always repeated. Out of some 420,000 compounds screened, about 50,000 (12%) were called active. The shares of active, inactive and inconclusive entries below differ from those in the screen. The call rests on the fitted dose curve; in most records, active means well fitted inhibition curve with a large enough effect; inconclusive means small, poorly fitted or top-dose-only effect; inactive means flat fitted curve, though single readings scatter. Potencies beside an inconclusive call are fits to weak or partial responses and may not hold up.

assay: qHTS for Inhibitors of human tyrosyl-DNA phosphodiesterase 1 (TDP1): qHTS in cells in presence of CPT; conditions: chicken DT40 Tdp1-/-;hTDP1 cells + 20 nM CPT, ATP luminescence, 48 h; activity change, negative = growth inhibition: at 46.2 µM (top of the series) unless noted; further: nearly all actives have a fitted effect of over 55% in size
In short: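 Cell growth measured by CellTiter-Glo luminescence after a minimum 48 h, 37 C compound exposure with 20 nM CPT in Tdp1-knockout DT40 cells stably expressing hTDP1, seeded 400/well; qHTS titration format.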
On the % scale 0 is the no-effect control and ±100 the full control effect; potency means the concentration at half of the fitted maximal effect; tags describe the fitted curve by direction and shape.

| Structure (SMILES) | Potency | activity change, negative = growth inhibition |
| --- | --- | --- |
| COc1ccc(-c2noc(CNC(=O)COc3cccc(C)c3C)n2)cc1 | inconclusive: 13 µM [inhibitor, partial curve] | – |
| O=C(/C=C/c1ccccc1)Nc1cccc(C(=O)NCCCCc2ccccc2)c1 | inconclusive: 23.1 µM [inhibitor, single point] | – |
| COc1cc(OC)c(C(=O)Nc2cccc3ccccc23)cc1OC | inconclusive: 29.1 µM [inhibitor, single point] | – |
| COC(=O)[C@@]1(Cc2ccc(OC)cc2)[C@H]2c3cc(C(=O)N4CCCC4)n(Cc4ccccc4)c3C[C@H]2CN1C(=O)c1ccccc1 | inconclusive: 29.1 µM [inhibitor, single point] | – |
| Cc1oc(-c2ccc(C(F)(F)F)cc2)nc1CN(Cc1ccccn1)C[C@@H]1CCC(=O)N1 | inconclusive: 20.6 µM [inhibitor, single point] | – |
| CN1C(=S)N(c2cccnc2)C(=O)/C1=C\c1ccc(N(C)C)cc1 | inconclusive: 18.4 µM [inhibitor, single point] | – |
| O=C(c1ccncc1)N1CCN(c2ccc3ccccc3n2)CC1 | inactive | – |
| N#CC1=C(N)SC(N)=C(C#N)C1C1C=CCCC1 (configuration not stated) | inconclusive: 16.4 µM [inhibitor, single point] | – |
| CCN(CC)S(=O)(=O)c1ccc(N2CCOCC2)c(NC(=O)c2ccco2)c1 | inconclusive: 29.1 µM [inhibitor, single point] | – |
| CCCOc1ccccc1OCC(=O)N1CCN(S(=O)(=O)c2ccc(Cl)cc2)CC1 | inactive | – |
| CCN(CC)S(=O)(=O)c1ccc(-n2cnc3cc(C)c(C)cc32)nc1 | inconclusive: 29.1 µM [inhibitor, single point] | – |
| CCOc1ccc(NC(=S)Nc2cccnc2)cc1 | inactive | – |
| CC(C)(C)OC(=O)NCCCC[C@H](NC(=O)c1[nH]cnc1C(=O)Nc1ccc(Cl)cc1)C(=O)OC(C)(C)C | inconclusive: 29.1 µM [inhibitor, single point] | – |
| CCOc1ccc(NC(=O)C2CCCN(S(C)(=O)=O)C2)cc1 (configuration not stated) | inactive | – |
| Cc1noc2ncnc(Oc3ccc(C(C)(C)C)cc3)c12 | inactive | – |
| O=C(CN1CCCC1)Nc1ccc(-c2nc3cc(NC(=O)CN4CCCC4)ccc3o2)cc1 | active: 18.4 µM | – |
| COc1ccc2c(c1[N+](=O)[O-])CCC/C2=N/OC(=O)c1cccc2ccccc12 | inconclusive: 25.9 µM [inhibitor, single point] | – |
| CCOC(=O)C(CC)Sc1nc2c(c(=O)[nH]c(=O)n2C)n1C/C=C(/C)Cl (configuration not stated) | active: 7.31 µM | – |
| CCCCn1c(Oc2ccc(C(=O)OC)cc2)nc2c1c(=O)n(C)c(=O)n2C | active: 16.4 µM | – |
| Cc1ccc(-c2cn(-c3ccccc3)c3[n+]2CCCS3)cc1 | active: 411 nM and active: 651 nM | – |
| CCOC(=O)c1c(C)oc2nc(C)nc(NCCCN3CCN(c4cc(C)ccc4C)CC3)c12 | inconclusive: 20.6 µM [inhibitor, single point] | – |

| Structure (SMILES) | Potency | activity change, negative = growth inhibition |
| --- | --- | --- |
| CC(=O)Nc1ccc(SCCN2CC[C@@H](C(C)(C)C)CCC2=O)cc1 | inconclusive: 28.2 µM [inhibitor, single point] and inconclusive: 18.4 µM [inhibitor, single point] | – |
| COCCn1nnnc1C(c1ccccc1OC)N1CCN(c2ccccc2)CC1 (configuration not stated) | inconclusive: 23.1 µM [inhibitor, partial curve] | – |
| O=C(Nc1ccncc1)c1c(Cl)cccc1Cl | active: 9.2 µM | – |
| COC(=O)C1=C(Cn2cnc3ccccc32)NC(=O)NC1c1cc(C)ccc1C (configuration not stated) | inconclusive: 29.1 µM [inhibitor, single point] | – |
| COc1ccc(-c2nc(CSCC(=O)NCc3ccccc3Cl)c(C)o2)cc1OC | inconclusive: 18.4 µM [inhibitor, single point] | – |
| Oc1ccccc1CN(Cc1ccco1)CC(O)COCc1ccc(Cl)cc1 (configuration not stated) | active: 14.6 µM | – |
| COc1cc(NC(=O)CSc2nc3ccccc3cc2Cc2ccccc2)cc(OC)c1 | inconclusive: 20.6 µM [inhibitor, single point] | – |
| Cc1c(C(=O)NCc2cccnc2)oc2ccc(S(=O)(=O)N3CCCC(C)C3)cc12 (configuration not stated) | inconclusive: 23.1 µM [inhibitor, single point] | – |
| CC(=O)c1c(C)[nH]c(C(=O)OCC(=O)Nc2cccnc2Cl)c1C | inconclusive: 29.1 µM [inhibitor, single point] | – |
| Cc1ccc(CN2CCc3nnc(C(C)NC(=O)c4cc(F)ccc4F)n3CC2)o1 (configuration not stated) | inactive | – |
| COc1cccc(/C=C/c2nc(C#N)c(N3CCN(C)CC3)o2)c1 | active: 23.1 µM | – |
| CC(C)C[C@H]1CNC(=S)N1C[C@H]1CCCN1C[C@H](Cc1ccc(O)cc1)N1C[C@H](CC(C)C)N(CCc2ccccc2)C1=S | inconclusive: 18.4 µM [inhibitor, single point] | – |
| Cc1cccn2cc(COc3ccc(-c4ccccc4)cc3)nc12 | inactive | – |
| COCCNC(=S)NC(=O)CC12CC3CC(CC(C3)C1)C2 | inconclusive: 23.1 µM [inhibitor, single point] | – |
| COc1cc(NC(=O)C2CCN(S(=O)(=O)c3c(C)noc3/C=C/c3ccccc3F)CC2)cc(OC)c1OC | inconclusive: 29.1 µM [inhibitor, single point] | – |
| O=C(NCc1ccco1)c1ccc(NC(=O)C2COc3ccccc3O2)cc1 (configuration not stated) | inconclusive: 29.1 µM [inhibitor, single point] | – |
| CCOc1ccccc1CNC(=O)C1Cc2cc(S(=O)(=O)N3CCCCC3)ccc2N1C(C)=O (configuration not stated) | inconclusive: 23.1 µM [inhibitor, single point] | – |
| COc1ccc(Cl)cc1NCC(=O)Nc1ccc(OC)c(S(=O)(=O)N2CCCCC2)c1 | inconclusive: 29.1 µM [inhibitor, single point] | – |
| COc1ccc2oc(/C=C/N(C)C)c(C(=O)c3ccc(Cl)cc3)c2c1 | inconclusive: 10 µM [inhibitor, partial curve] | – |
| COC(=O)c1ccccc1NC(=O)NCc1ccccn1 | – | inconclusive: -28.3% [inhibitor] |
| COc1ccc(C)cc1NC(=O)COC(=O)c1ccc2c(c1)OCO2 | inconclusive: 0.206 µM [inhibitor, full curve, poor fit] | – |
